# Laboratory results: PubChem BioAssay AID1454 (National Center for Advancing Translational Sciences (NCATS), 2008)
# Hit rate of the full screen: of about 130,000 compounds, about 550 (0.42%) were called active. The inconclusive results got no clear call from the source; some entries with a clear call stand among them for comparison. The call rests on the fitted dose curve; in most records, active means well fitted inhibition curve with a large enough effect; inconclusive means small, poorly fitted or top-dose-only effect, or effect the other way; inactive means flat fitted curve, though single readings scatter. No potency is given beside an inconclusive call; the fits are too rough.
# Experiment: qHTS Assay for Inhibitors of the ERK Signaling Pathway using a Homogeneous Screening Assay; Stimulation with EGF; further: nearly all actives have a fitted effect of over 55% in size
# Details: HEK293-V1b, EGF-stimulated phospho-ERK AlphaScreen
# Description: NIH Chemical Genomics Center [NCGC]
# NIH Molecular Libraries Screening Centers Network [MLSCN]
# Assay Submitter (PI): Dr. Wei Zheng, NCGC/NIH
# The Ras/extracellular-signal-regulated kinase (ERK) mitogen activated protein (MAP) kinase signaling pathway (ERK1/2 cascade) plays a key role in transmitting signals from the cell surface to the nucleus (Nishida and Gotoh 1993; Chang and Karin, 2001). The cascade is initiated by the small G-protein Ras, which recruits Raf from the cytosol, where activation occurs. Alternatively, this pathway can be activated by elevating intracellular cAMP, or by activation of a receptor tyrosine kinase as epidermal growth factor receptor.
# Activation of the ERK pathway is essential in increased cell division and cell survival. Sustained and constitutive activation of the ERK pathway, however, has been linked to uncontrolled cell proliferation, increased cell survival, and tumor progression. Thus, the ERK has been as an attractive target for cancer chemotherapy in the past few years (Sebolt-Leopold and Herrera, 2004). Given its physiological and pathological importance, assessment of ERK phosphorylation has been broadly performed in both basic research and drug discovery. Most assays for the measurement of ERK phosphorylation use the antibody-based detection methods, such as western blot and ELISA. These assays require multiple reagent additions with cell wash steps and are not suitable for high throughout screening.
# The current cell-based ERK phosphorylation assay was performed using AlphaScreen platform. AlphaScreen is a two bead-based proximity-dependent chemical energy transfer luminescent assay platform. The assay reagents (ERK SureFire(TM) kit) were supplied from TGR BioSciences (Australia). In the presence of specific antibodies, phosphorylated ERK will bring "donor" and "acceptor" beads to a proximity range (<200 nm), and subsequently lead a chemical luminescent reaction upon exciting donor beads with 680 nm laser. To exclude the assay-related false positives, we used a biotinylated rabbit IgG to perform counter-screen. The biotinylated antibody mimics the phosphorylated ERK1/2 for bringing streptavidin coated beads and protein-A coated beads to a proximity range for the AlphaScreen detection.
# NCGC Assay Protocol Summary:
# HEK293 cells stably expressing type-1 vasopressin receptor (V1b) were maintained in DMEM medium (Invitrogen, Carlsbad, CA) at 37C under a humidified atmosphere containing 5% CO2 and 95% air. The medium contained 10% FBS, 2 mM L-glutamine, non-essential amino acid, pyruvate and 50 U/ml penicillin and 50 ug/ml streptomycin (Invitrogen). The aliquots of frozen cells were stored at -135C and used for the compound screening. All compounds were screened as titrations from 0.6 nM to 46 uM final concentration. Epidermal growth factor (EGF) was used to stimulate the ERK phosphorylation pathway. The ERK phosphorylation in cells was determined using an AlphaScreen assay kit provided by […]. Data were normalized to the controls for basal activity (DMSO only) and 100% activation (25 nM EGF). AC50 values were determined from concentration-response data modeled with the standard Hill equation.
# (1) Seed 4 ul/well of resuspended frozen HEK293 cells containing 2000 cells in white 1536-well plates for overnight with 1% FBS at 37C under a humidified atmosphere containing 5% CO2 and 95% air.
# (2) Add 23 nL compounds in DMSO solution. The final titration was 0.6 nM to 46 uM.
# (3) Incubate at 37C for 30 min.
# (4) Dispense 0.5uL EGF (25 nM in final)
# (5) Incubate at 37C for 5 min.
# (6) Dispense 0.5uL of 1:2 diluted 5x lysis buffer.
# (7) Incubate at 37C for 10 min.
# (8) Dispense 1.5uL of mixture of activation buffer and reaction buffer with AlphaScreen beads (streptavidin donor beads and protein-A acceptor beads, 10 ng/well for each).
# (9) Incubate at room temperature for 5 hr.
# (10) Detect the assay plate in an EnVision plate reader (PerkinElmer) using the AlphaScreen detection mode.
# […]
# Potency means the concentration at half of the fitted maximal effect; tags describe the fitted curve by direction and shape.
row,SMILES,Potency
1,O=[N+]([O-])c1ccc(N/N=C/c2sc(N3CCOCC3)nc2-c2ccccc2)c(S(=O)(=O)Nc2ccc(Cl)cc2)c1,"inconclusive [inhibitor, partial curve]"
2,COc1ccc(NC(=S)N(CCO)Cc2cc3c(C)cc(C)cc3[nH]c2=O)cc1,"inconclusive [inhibitor, single point]"
3,CN(Cc1cccc(Cl)c1Cl)c1ccc(S(=O)(=O)N2CCCCC2)cc1[N+](=O)[O-],"inconclusive [inhibitor, single point]"
4,CCN1CCCC1CNC(=O)c1cc(S(=O)(=O)CC)c(N)cc1OC (stereo not given),"inconclusive [inhibitor, partial curve]"
5,Cc1cccc(C)c1OC[C@H](C)N,inactive
6,COc1cc2c(-c3ccc(O)cc3)nc3c(c(C)nn3-c3ccccc3)c2cc1OC,inactive
7,O=c1c(-c2cccc(F)c2)nc2cncnc2n1Cc1ccccc1,"inconclusive [inhibitor, single point]"
8,Cc1ccc(NC(=O)Nc2cccn(Cc3c(F)cccc3Cl)c2=O)cc1,"inconclusive [inhibitor, partial curve]"
9,CSc1ncccc1C(=O)N1CCCC(C(=O)c2ccc3ccccc3c2)C1 (stereo not given),inactive
10,COc1ccc(/C=C/C(=O)N2CCN(c3ccccc3)CC2)cc1S(=O)(=O)N1CCOCC1,"inconclusive [inhibitor, single point]"
11,COc1ccc(C(=O)OCc2cc3cccc(C)c3[nH]c2=O)cc1,inactive
12,COc1cccc(CNCCc2c[nH]c3ccccc23)c1OCc1ccccc1,"inconclusive [inhibitor, single point]"
13,Cc1ccc(-c2nnc(Sc3nc4ccccc4o3)c3ccccc23)cc1,"inconclusive [inhibitor, single point]"
14,C/C(=N\Nc1ccc(C(F)(F)F)cc1[N+](=O)[O-])C(C)C,"inconclusive [inhibitor, single point]"
15,COc1cc(C(=S)N(C)C)ccc1O,"inconclusive [activator, single point]"
16,CC1=CN2C(=N)/C(=C/c3ccc(Sc4ccc(C)cc4)o3)C(=O)N=C2S1,"inconclusive [inhibitor, single point]"
17,COc1ccc(CN2C=C3C(=O)C(C)(OC(=O)CCc4ccccc4)C(=O)C=C3C=C2c2ccc(C#N)cc2)cc1 (stereo not given),"inconclusive [inhibitor, partial curve, poor fit]"
18,CC1CCC2C(C)(C)C3CC12CC[C@]3(C)O (stereo not given in full),"inconclusive [inhibitor, full curve, poor fit]"
19,CCCn1c(-c2ccc(F)cc2)nc2c(NCCN(C)C)nc(C)nc21,inactive
20,N#C/C(=C\C1=C(N2CCOCC2)C(=C/c2cccc([N+](=O)[O-])c2)/CC1)C(=O)Nc1ccccc1F,active: 3.55 µM
21,CCc1cccc(CC)c1NC(=O)CSc1nc2ccc(N3C(=O)C4C(C3=O)[C@H]3C=C[C@@H]4C3)cc2s1 (stereo not given in full),inactive
22,COC(=O)/C(=C1\OC(=O)C(c2ccccc2)C1=O)c1ccccc1 (stereo not given),inactive

row,SMILES,Potency
1,Cc1ccccc1C(=O)Nc1cccc(C(=O)N/N=C/c2cc(Cl)cc([N+](=O)[O-])c2O)c1,"inconclusive [inhibitor, single point]"
2,O=C(Nc1ccc(F)cc1)c1cc(Cl)sc1Cl,"inconclusive [inhibitor, single point]"
3,Cc1ccc(CN(Cc2ccccc2)C(=S)Nc2ccccc2C)o1,"inconclusive [inhibitor, full curve, poor fit]"
4,CCN1/C(=N\N)c2cccc3cccc1c23,active: 12.6 µM
5,CN1CCN(S(=O)(=O)c2cccc(S(=O)(=O)c3ccc(Cl)c(Cl)c3)c2)CC1,"inconclusive [inhibitor, partial curve]"
6,COc1ccc(C2CC(=O)Oc3c(C(CCN4CCN(c5ccccc5)CC4)c4ccc(N(C)C)cc4)c(OC)cc(OC)c32)cc1 (stereo not given),active: 15.8 µM
7,CC(=O)c1ccc(-c2ccc(C(=O)N3CCN(c4ccc(F)cc4)CC3)o2)cc1,"inconclusive [inhibitor, single point]"
8,CN(CCCC[C@H](CNCc1ccc(-c2ccccc2)cc1)N1C[C@H](c2ccccc2)N(CCc2ccc(Cl)c(Cl)c2)C(=O)C1=O)Cc1ccc(-c2ccccc2)cc1,"inconclusive [inhibitor, full curve, poor fit]"
9,CCSC1=N/C(=C\c2ccccc2)C(=O)N1c1ccc(OC)cc1,"inconclusive [activator, partial curve]"
10,Cc1ccc(-c2csc(NC(=O)CSc3nc4ccccc4o3)n2)cc1,"inconclusive [inhibitor, single point]"
11,COc1ccccc1OCCNCC(O)COc1cccc2[nH]c3ccccc3c12 (stereo not given),"inconclusive [inhibitor, single point]"
12,CN1C=CC=C/C1=C1\SC(=S)N(Cc2ccccc2)C1=O,"inconclusive [inhibitor, partial curve]"
13,CC(C)C(NC(=O)C(Cc1ccc(O)cc1)NC(=O)C(NC(=O)C(F)(F)F)C(C)C)C(=O)O (stereo not given),inactive
14,CC(C)c1nc(CN(C)C(=O)N[C@H](C(=O)N[C@@H](Cc2ccccc2)C[C@H](O)[C@H](Cc2ccccc2)NC(=O)OCc2cncs2)C(C)C)cs1,"inconclusive [inhibitor, partial curve, poor fit]"
15,S=C(NCc1ccccc1)NNc1nc2ccccc2[nH]1,"inconclusive [inhibitor, single point]"
16,Cc1ccc(SCC(=O)c2c(C)nc3ccccn23)cc1,inactive
17,Cc1ccccc1Nc1nc(N)nc(CSc2nnnn2C)n1,inactive
18,COc1cc(-c2coc3cc(OCc4ccccc4)c(OC)c(O)c3c2=O)cc(O)c1OC,inactive
19,COc1ccc(C(=O)c2sc3nc(-c4ccccc4)ccc3c2N)cc1,"inconclusive [activator, single point]"
20,Cc1ccc(C(C(=O)NCC2CCCO2)N(Cc2ccccc2)C(=O)c2ccc(-c3ccccc3)[nH]2)o1 (stereo not given),inactive
21,CCC1OC(=O)C(C)[C@@H](O[C@H]2C[C@@](C)(OC)C(O)C(C)O2)C(C)[C@@H](O[C@@H]2OC(C)CC(N(C)C)C2O)[C@@](C)(O)CC(C)CN(C)C(C)C(O)[C@]1(C)O (stereo not given in full),inactive
22,CN(C)c1ccc(-n2cccc2/C=C/[N+](=O)[O-])cc1,"inconclusive [inhibitor, single point]"

row,SMILES,Potency
1,COc1ccc(CNC(=O)N[C@H](C(=O)O)C(C)C)cc1OC,"inconclusive [activator, single point]"
2,COC(=O)/C(=C1/OC(=O)C(c2ccccc2)=C1O)c1ccccc1,inactive
3,COC(=O)N1CCC2(CCCN(c3ccccn3)C2)CC1,"inconclusive [inhibitor, full curve, poor fit]"
4,CCN(CC)c1ccc(NS(=O)(=O)c2ccc(OC)cc2)cc1,"inconclusive [inhibitor, partial curve]"
5,COc1ccc(C2OC(=O)CC2C(=O)NCc2ccc(F)cc2)cc1OC (stereo not given),"inconclusive [inhibitor, single point]"
6,CC(C)[C@H](NC(=O)c1ccccc1)C(=O)OCC(=O)/C=C1/N(C)c2ccccc2C1(C)C,"inconclusive [inhibitor, single point]"
7,COc1ccc(C(C)=O)c(O)c1,"inconclusive [inhibitor, single point]"
8,CCC(=O)NC(c1cccs1)c1cc([N+](=O)[O-])c2cccnc2c1O (stereo not given),inactive
9,Oc1ccc(-c2nc3c4c(ncn3n2)-c2ccccc2CC42CCCC2)cc1,"inconclusive [inhibitor, partial curve]"
10,Cc1cccc2c1-c1sc(C(=O)Nc3ccccc3N3CCN(C)CC3)cc1CO2,"inconclusive [inhibitor, single point]"
11,CC(C)Cn1nc(NC(=O)c2cccs2)c2cc3ccccc3nc21,"inconclusive [activator, single point]"
12,Cc1cc(C)cc(N=c2c([N+](=O)[O-])nn(-c3ccc(Cl)cc3)n2O)c1,"inconclusive [inhibitor, partial curve, poor fit]"
13,COc1ccc(-n2ncc(Cl)c(Cl)c2=O)cc1,inactive
14,Cn1nc(C(=O)OCC(=O)Nc2ccc3ccccc3c2)c2ccccc2c1=O,"inconclusive [inhibitor, single point]"
15,O=C(N/N=C/c1ccc(N2CCCC2)c([N+](=O)[O-])c1)c1cccnc1,"inconclusive [inhibitor, partial curve]"
16,O=C(c1cccc(F)c1)N1CCC2(CC1)CN(c1ccc(-c3ccccc3)cc1)C2,"inconclusive [inhibitor, partial curve]"
17,c1ccc2oc(-c3ccn[nH]3)cc2c1,inactive
18,CCOC(=O)C(C)Sc1nc2c(c(-c3cccs3)c1C#N)CCC2 (stereo not given),"inconclusive [activator, partial curve]"
19,CCOC(=O)c1csc(NC(=O)c2ccc(OCC)cc2)n1,"inconclusive [inhibitor, partial curve]"
20,O=C(CSc1ccccc1)Nc1nccs1,inactive
21,CN(c1ccccc1)S(=O)(=O)c1ccc(Cl)c(C(=O)Nc2ccc(-c3nc4ccccc4[nH]3)cc2)c1,"inconclusive [inhibitor, single point]"
